# In the supplement of paper PMC3334620:
# Whole data set: some 33,000 sequences, median “E-score (-0.5 to 0.5)” near -0.016, cut for the highest 2% near 0.32. The list shows a part of the results.
# Target: T1, Stp1 (UniProt B3LFK1)
# T1 sequence: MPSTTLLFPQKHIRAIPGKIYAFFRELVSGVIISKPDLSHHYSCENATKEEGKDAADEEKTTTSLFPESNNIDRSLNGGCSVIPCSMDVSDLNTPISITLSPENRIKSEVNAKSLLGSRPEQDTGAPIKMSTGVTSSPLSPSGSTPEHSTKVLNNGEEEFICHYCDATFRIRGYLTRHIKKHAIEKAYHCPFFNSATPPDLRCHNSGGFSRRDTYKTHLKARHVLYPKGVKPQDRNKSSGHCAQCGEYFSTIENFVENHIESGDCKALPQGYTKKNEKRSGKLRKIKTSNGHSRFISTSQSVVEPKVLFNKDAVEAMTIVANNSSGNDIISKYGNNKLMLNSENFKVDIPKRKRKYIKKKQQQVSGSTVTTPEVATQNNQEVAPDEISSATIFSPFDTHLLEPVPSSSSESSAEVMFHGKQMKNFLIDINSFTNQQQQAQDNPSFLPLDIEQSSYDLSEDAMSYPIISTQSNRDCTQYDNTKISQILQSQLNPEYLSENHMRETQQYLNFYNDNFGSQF
# Assay: PBM E-score (8-mer binding enrichment) (E-score (-0.5 to 0.5)); higher = stronger / more preferred TF binding; most listed sequences are background and not binding sites
# Conditions: protein concentration: 200 nM; construct: GST-full length
# How it was run: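 For each ungapped eight-base word taken together with its reverse complement, the Universal PBM Analysis Suite assigned an E-score. Binding data came from GST-tagged yeast transcription factors, applied at about 100-200 nM, on universal all-10-mer Agilent arrays made double-stranded by primer extension. Fluorescent anti-GST marked bound protein, and scans were normalised with masliner.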
row,Sequence,PBM E-score
1,CTCATCGC,-0.0979
2,GTGCATGA,0.0843
3,CTAACAAA,0.12
4,TACACACA,0.202
5,GGCGTGCA,-0.00279
6,GCTAACAA,0.201
7,AAGTCTTA,-0.2
8,GTAACAAC,0.037
9,CGTAAGGC,0.358
10,CAGGGGAA,-0.305
11,CGTTCGCC,0.206
12,TCCCCGGA,-0.195
13,GAACCGCC,-0.0162
14,CTAGTTTC,-0.11
15,CACAATCA,0.0635
16,GGATACAC,-0.11
17,ATCTTGCC,0.123
18,AGACGCAT,-0.157
19,CCATAAAG,-0.0597
20,ATCCGCAC,0.302
21,TCCTCGAA,0.0519
22,GAAAATTC,0.141
23,ACTTGTAG,-0.0616

row,Sequence,PBM E-score
1,GACTTAGC,-0.184
2,ACAGTGCC,0.321
3,ACCTCGGC,0.15
4,CCTAATGC,0.00991
5,ACGGAGCC,0.0815
6,AGGCGTAC,0.137
7,AACGGACA,0.152
8,TAATACTA,0.0794
9,ACTGACTG,0.0981
10,ACCCGAAT,-0.13
11,AATTTTTC,0.159
12,CGCACTCC,-0.172
13,ATCTAAAA,0.0644
14,CTGATAAC,0.0243
15,AAACCTCG,-0.129
16,ACAGTCCT,-0.0842
17,ATCCTCAC,0.0973
18,ATTGAAGA,-0.116
19,AATTCACT,0.185
20,AGCGCGCG,0.196
21,CGACCGTC,-0.185
22,ACAACCGA,0.114
23,ATTATGCC,0.283

row,Sequence,PBM E-score
1,CAGACATG,-0.0958
2,AGCTACCC,-0.182
3,TGGAATAA,0.00418
4,ATAGGAGG,-0.0798
5,AGTACCAT,-0.0732
6,GCTCGCTA,-0.092
7,AGTGAGAA,-0.0155
8,CGTGTAAC,0.0662
9,ATCCCTCC,-0.277
10,CCCTCGCG,0.115
11,TAGTGCGA,-0.0834
12,TAGCTTGA,-0.2
13,ATAATTGA,0.0846
14,GACGAAGA,0.133
15,ATAAATAT,0.279
16,CTGAGGGC,-0.237
17,CGGTATCC,-0.0671
18,TTACCCAA,-0.193
19,ACCACACT,-0.0376
20,GCGGCCAC,0.188
21,CGGTCGCC,0.0981
22,CTACACCC,-0.227
23,GAGATTAC,-0.0779

row,Sequence,PBM E-score
1,CGCACGGA,0.39
2,TCGCACCA,0.0289
3,ACCCGGAT,-0.231
4,ACACGGCG,0.488
5,CGGACCAG,0.0174
6,CAAAGCGC,0.165
7,CGCAATTC,0.101
8,ACGCGTAA,0.0664
9,AGGCTCAA,0.0744
10,ATGAATGG,-0.00478
11,AACCTCAT,-0.0102
12,GCAACAGA,0.152
13,GGCTATAA,-0.00488
14,AGATAGAT,-0.0201
15,ATCTCACG,0.015
16,ATCCTTAG,-0.0812
17,ATCCCGCC,-0.00695
18,ACCACAGG,-0.201
19,CATTTTCC,0.114
20,GGCACGCC,0.238
21,CAAAAGGC,0.359
22,TTAAACAA,0.0407
23,CATCCGGG,-0.226

row,Sequence,PBM E-score
1,AATGAACA,0.0344
2,GTATACGA,0.0385
3,GCATGCTA,-0.218
4,ACGACCCA,-0.238
5,CGGCCACA,0.272
6,GAACTTTA,-0.00687
7,GACGAGCC,0.00102
8,CGGGCCTA,-0.291
9,ATGTATAC,0.0457
10,CATTGATC,0.0698
11,CTTTCTCC,-0.244
12,CTAATCAC,0.171
13,CTGATGCC,0.187
14,ACTACATA,-0.0145
15,GTCTCTAA,-0.0881
16,ACACAGTC,-0.0562
17,CCGTCTAG,0.177
18,CCAAAGCC,0.105
19,AACCGCAA,0.0793
20,TAGCTATA,-0.135
21,CTCATGGC,0.0928
22,GTTCCCGA,-0.0302
23,GCCCTAAC,0.158

row,Sequence,PBM E-score
1,AAGGACTG,-0.13
2,ATTTGTCC,-0.00342
3,ATCAAGAG,0.0368
4,CAGCACCC,-0.223
5,GCTGGCAC,-0.02
6,ATGGAATC,0.117
7,CTCACCAA,0.045
8,ACGTGCGA,0.00881
9,ATTGGACC,-0.188
10,GCTAAACC,-0.156
11,AGATTACA,0.0851
12,GAGAGCAA,-0.0418
13,AGCTTTAA,0.0302
14,GAATCGTA,0.0338
15,CCTCAGCC,-0.162
16,GGTCAACC,-0.115
17,AGTTATAC,0.121
18,ACCGAGAC,-0.179
19,GAGCCGCC,0.319
20,CTGTCCCA,-0.0423
21,CTCGTCAA,0.0518
22,GTTCGCGA,0.124
23,ACTAAGAC,0.0929

row,Sequence,PBM E-score
1,GGCCGAAC,-0.119
2,CCCTCCGG,-0.217
3,CGTCGAAA,0.227
4,GCTTCAAC,-0.0217
5,GCATGTCA,-0.0507
6,AGAGGAGG,-0.29
7,CACGCCCA,-0.068
8,AAGGAATA,0.146
9,CGGCGGGA,0.207
10,ATACGCCA,0.0267
11,ACGAGTAC,-0.0325
12,CAACCGTG,-0.0436
13,CCCACATC,-0.278
14,GAGGTGAA,-0.0598
15,AAATAACC,-0.0869
16,AATTTTGG,0.00059
17,CCAAAGAG,0.0985
18,TCGTATAA,0.136
19,AGTCGTCA,-0.184
20,GGCAAAAA,0.388
